# Results published in PubChem BioAssay AID504832 (National Center for Advancing Translational Sciences (NCATS), 2011).
# Screen size: about 310,000 compounds; about 18,000 (5.8%) were called active. The shares of active, inactive and inconclusive entries below differ from those in the screen. The call rests on the fitted dose curve; in most records, active means well fitted inhibition curve with a large enough effect; inconclusive means small, poorly fitted or top-dose-only effect, or another doubt; inactive means no such curve, though single readings can be large or run the other way. No potency is given beside an inconclusive call; the fits are too rough.
# Assay: Primary qHTS for delayed death inhibitors of the malarial parasite plastid, 48 hour incubation
# Conditions: P. falciparum luciferase growth in erythrocytes; series mostly up to 28.7 µM; activity change, negative = inhibition: at the top concentration
# Procedure, shortened: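 Compounds are pin-transferred into medium, infected erythrocytes (2% hematocrit, 0.1% parasitemia final) are added, and plates sit one parasite generation at 37 C in 5% CO2. Detection reagent is then added and luminescence measured.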
# On the % scale 0 is the no-effect control and ±100 the full control effect; potency means the concentration at half of the fitted maximal effect; tags describe the fitted curve by direction and shape.
SMILES,Potency,"activity change, negative = inhibition"
CCCCCCn1c(-c2ccco2)nc2oc3cc(OC)ccc3c(=O)c2c1=O,active: 5.22 µM,
CCOc1ccc(S(=O)(=O)N(C)c2ccc(OCC(=O)Nc3nccs3)cc2)cc1,active: 1.85 µM,
O=C(Cn1nnc(-c2ccc(Cl)cc2)n1)N1CCN(C(=O)c2ccco2)CC1,"inconclusive [inhibitor, single point]",
CCC(C)NCCCCOc1cc(C)cc(C(C)C)c1 (configuration not stated),"inconclusive [inhibitor, single point]",
Cc1ccc(C(=O)Nc2c(-c3cccs3)nc3cc(C)ccn23)cc1,"inconclusive [inhibitor, partial curve]",
O=C(CCCn1c(=S)[nH]c2ccccc2c1=O)N1CCCCC1,"inconclusive [inhibitor, single point]",
O=C1NC[C@H](Cc2ccc(O)cc2)N(CC2CCCCC2)C1=O,"inconclusive [inhibitor, partial curve, poor fit]",
O=c1c2ccccc2nc(/C=C/c2ccc3c(c2)OCO3)n1CCCO,,inactive: 12.7%
N#C/C(=C(/O)COC(=O)CCc1ccc(S(=O)(=O)N2CCOCC2)cc1)c1nc2ccccc2[nH]1,"inconclusive [inhibitor, single point]",
CCc1cccc2c(C(=O)COC(=O)C3=NNC(=O)CC3)c[nH]c12,,inactive: 15.6%
N#CC(C#N)=C1c2cc(S(N)(=O)=O)ccc2-c2ccc(S(N)(=O)=O)cc21,"inconclusive [inhibitor, single point]",
CCNC(=S)NNC(=O)c1cc(CC(C)C)nc2ccccc12,"inconclusive [inhibitor, single point]",
C/C(=N/NC(=O)NC12CC3CC(CC(C3)C1)C2)c1ccccc1,"inconclusive [inhibitor, single point]",
Cc1ccc2cc(CN(CC3CCCO3)C(=O)C(C)C)c(=O)[nH]c2c1 (configuration not stated),"inconclusive [inhibitor, single point]",
COc1cccc(NC(=O)C2CCCN(S(=O)(=O)c3cccc4cccnc34)C2)c1 (configuration not stated),"inconclusive [inhibitor, partial curve, poor fit]",
O=C1[C@H]2CCCC[C@H]2C(=O)N1CCCCN1CCN(c2nsc3ccccc23)CC1,"inconclusive [inhibitor, single point]",
Oc1ccc2c3c1O[C@H]1c4[nH]c5ccccc5c4C[C@@]4(O)[C@@H](C2)N(CC2CC2)CC[C@]314,"inconclusive [inhibitor, single point]",
Cn1c(NCc2ccco2)nc2ccccc21,,inactive: 59.7%
CCOC(=O)c1c(NC(=S)Nc2ccccc2)sc2c1CCN(C)C2,"inconclusive [inhibitor, partial curve]",
COc1ccc(C)cc1NC(=O)Cn1cnc2sc(C)c(S(=O)(=O)N3CCOCC3)c2c1=O,"inconclusive [inhibitor, single point]",
CCOc1ccc(-c2nnc3ccc(SC)nn23)cc1,,inactive: 19.5%

SMILES,Potency,"activity change, negative = inhibition"
Cc1nc(N2CCCCC2)sc1C(=O)c1cccc([N+](=O)[O-])c1,"inconclusive [inhibitor, single point]",
COc1ccc(CCn2c(=N)c(C(=O)NCC3CCCO3)cc3c(=O)n4cccc(C)c4nc32)cc1OC (configuration not stated),"inconclusive [inhibitor, full curve]",
O=Cc1cn(Cc2c(F)cccc2Cl)c2ccccc12,,inactive: 18.2%
CC(C)(C)[C@H]1C=C(C(=O)NCc2nc3ccccc3[nH]2)O[C@@H](OCCCCO)C1,"inconclusive [inhibitor, single point]",
CCCOC(=O)c1c(NC(=O)/C=C/c2cnn(C)c2C)sc(C(=O)OC)c1C,"inconclusive [inhibitor, single point]",
CC1=C(C(=O)OC2CCCCCCC2)C(c2cc3c(cc2Br)OCO3)CC(=O)N1 (configuration not stated),active: 10.4 µM,
COc1ccc([N+](=O)[O-])cc1NC(=O)CC1SC(=Nc2cccc(C)c2C)N(/N=C(\C)c2ccc(C)cc2)C1=O (configuration not stated),"inconclusive [inhibitor, partial curve]",
O=C(Nc1ccc(Cc2ccncc2)cc1)c1ccco1,,inactive: 50.2%
COc1ccccc1N1CCN(C2CCCN(Cc3ccc(Cl)cc3)C2)CC1 (configuration not stated),,inactive: -15.7%
Cc1cccc(-n2cnc3sc(C)c(C)c3c2=O)c1,"inconclusive [inhibitor, partial curve, poor fit]",
Cc1ccc2cc(C(c3nnnn3Cc3ccccc3)N3CCN(c4ccccc4)CC3)c(=O)[nH]c2c1 (configuration not stated),active: 5.86 µM,
CN(C)CCCNC(=O)c1cc2c3ccccc3n(C)c2s1,"inconclusive [inhibitor, single point]",
CS(=O)(=O)Nc1ccc(-c2cc(/C=C3\SC(N)=NC3=O)c[nH]c2=O)cc1,"inconclusive [inhibitor, partial curve]",
Cc1ccc(-n2c(O)c(C=Nc3ccc(S(=O)(=O)Nc4ncccn4)cc3)c3ccccc3c2=O)cc1C,"inconclusive [inhibitor, single point]",
COC(=O)c1cc(NC(=O)CC2CCCC2)cc(C(=O)OC)c1,"inconclusive [inhibitor, single point]",
COCCN1Cc2cccc(C(=O)Nc3cccc(OC)c3)c2C1=O,"inconclusive [inhibitor, partial curve, poor fit]",
O=C(Cc1ccc(S(=O)(=O)N2CCOCC2)s1)NCCc1ccc(F)cc1,"inconclusive [inhibitor, partial curve]",
CC1=Nc2cc(C(=O)NCC3CCCO3)ccc2Sc2ccc(C)cc21 (configuration not stated),"inconclusive [inhibitor, partial curve]",
CC(C)(C)[C@]1(O)CCN2CC3c4ccccc4CCc4cccc(c43)[C@@H]2C1 (some centres not stated),active: 13.5 µM,
Brc1ccc2nc(CSc3ncn[nH]3)cn2c1,,inactive: 71.2%
CCC1(CC)Cc2ccccc2-c2nc(NN)[nH]c(=O)c21,"inconclusive [inhibitor, single point]",
